Data: PubChem BioAssay AID624417 (National Center for Advancing Translational Sciences (NCATS), 2012)
Several values for one entry are separate records, joined by “and”; a condition that tells them apart may be missing. Identical values can stand only once. The campaign covered roughly 410,000 compounds. About 6,400 (1.6%) were called active. The shares of active, inactive and inconclusive entries below differ from those in the screen. Calls follow the shape of the dose curve; as a rule, active = well fitted inhibition curve with a large enough effect; inconclusive = small, poorly fitted or top-dose-only effect; inactive = no such curve, though single readings can be large or run the other way. Potencies of inconclusive entries are doubtful fits and often do not repeat.

Target: Glucagon-like peptide 1 receptor (Homo sapiens) (UniProt P43220)
Assay: qHTS of GLP-1 Receptor Inverse Agonists (Inhibition Mode); also: nearly all actives have a fitted effect of over 55% in size
Conditions: HEK293 GLP-1R CRE-luciferase, luminescence, 24 h, GLP-1R form is constitutively active; activity change, negative = inhibition: at 38.3 µM (top of the series) unless noted
In short: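 HEK293 cells stably co-expressing constitutively active GLP-1R and a cAMP-responsive luciferase reporter were seeded in DMEM with 10% Nu serum, given compounds after 12 h, and incubated 24 h at 37 deg C. Luminescence was then read.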
% is scaled to controls: 0 for no effect and ±100 for the full control effect; potency is read from the fitted curve at half-maximal effect; tags tell the direction and shape of the fitted curve.

UniProt P43220, sequence (P43220 whole entry, looked up): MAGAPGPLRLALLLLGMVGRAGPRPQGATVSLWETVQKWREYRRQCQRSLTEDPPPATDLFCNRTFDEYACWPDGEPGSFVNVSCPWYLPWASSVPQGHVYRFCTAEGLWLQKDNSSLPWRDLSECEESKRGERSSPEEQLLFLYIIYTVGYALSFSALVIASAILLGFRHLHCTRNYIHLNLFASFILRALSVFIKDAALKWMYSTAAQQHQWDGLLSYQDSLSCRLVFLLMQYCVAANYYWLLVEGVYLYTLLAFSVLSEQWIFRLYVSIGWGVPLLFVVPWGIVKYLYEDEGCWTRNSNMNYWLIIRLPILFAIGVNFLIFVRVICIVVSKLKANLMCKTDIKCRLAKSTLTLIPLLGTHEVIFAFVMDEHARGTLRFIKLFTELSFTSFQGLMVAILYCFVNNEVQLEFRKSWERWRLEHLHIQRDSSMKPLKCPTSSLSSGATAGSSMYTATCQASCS

Compound | Potency | activity change, negative = inhibition
O=C(Nc1cc(F)ccc1F)N1CCC(CN2CCOCC2)CC1 | inactive | –
COc1ccc(C[C@H]2CN3C(=NC[C@@H]3C(C)C)N2C[C@H](C)NC(=O)c2ccc(C)c(Br)c2)cc1 | inconclusive: 28.2 µM [inhibitor, single point] | –
CN1CCN(c2ccccc2NC(=O)c2ccc(-c3ccccc3)cc2)CC1 | inconclusive: 10 µM [inhibitor, partial curve, poor fit] | –
COc1ccccc1C(=O)NC1CCN(C(=S)NCCc2ccccc2)CC1 | inconclusive: 28.2 µM [inhibitor, single point] | –
CCOc1cccc(NC(=O)c2ccc(S(=O)(=O)N3CCCC3)cc2)c1 | inconclusive: 8.91 µM [inhibitor, partial curve, poor fit] | –
CS(=O)(=O)Nc1ccccc1C(=O)Nc1cc(Cl)cc(Cl)c1 | inconclusive: 3.55 µM [inhibitor, full curve] | –
COc1cccc(C(=O)NCCSc2c(C)[nH]c3ccccc23)c1OC | inconclusive: 28.2 µM [inhibitor, single point] | –
COc1ccc(NC(=O)CCCNC(=O)c2ccc(Cl)cc2)cc1S(=O)(=O)N1CCCCC1 | inactive | –
CC1=C(C(=O)Nc2ccc(Cl)cc2)C(c2ccccc2C)n2ncc(C(=O)Nc3ccc(C)cc3)c2N1 (stereo not drawn) | active: 2.82 µM | –
CCCCNS(=O)(=O)c1ccc2nc(SCC(=O)Nc3cccc(F)c3)[nH]c2c1 | inconclusive: 14.1 µM [inhibitor, single point] | –
c1cc2[nH]snc2c2nc(C3CC3)nc12 | inconclusive: 11.2 µM [inhibitor, partial curve, poor fit] | –
Cc1ccc(NC(=S)NC(=O)C2CC2)c(C)c1 | inconclusive: 28.2 µM [inhibitor, single point] | –
Cc1ccc(NNC2CC(=O)N(c3cccc(Cl)c3)C2=O)cc1 (stereo not drawn) | inconclusive: 28.2 µM [inhibitor, single point] | –
CCCCCCSc1cccc(-c2nc3ccc(Cl)cn3c2NCc2ccccc2)c1 | inconclusive: 28.2 µM [inhibitor, single point] and inconclusive: 7.08 µM [inhibitor, partial curve, poor fit] | –
Cc1cc(C(C)(C)C)oc1C(=O)N(CC(=O)NC1CCCC1)Cc1ccc(Cl)cc1 | active: 7.08 µM | –
CC1C=CCC2C(=O)N(c3cccc(C(=O)Nc4ccc(Br)cc4)c3)C(=O)C12 (stereo not drawn) | inconclusive: 10 µM [inhibitor, partial curve, poor fit] | –
CCOc1cc(C)c(-c2onc(C(F)(F)F)c2-c2csc(C)n2)c(O)c1 | inconclusive: 7.94 µM [inhibitor, partial curve, poor fit] | –
CCOc1cc(N2CCOCC2)c(OCC)cc1NC(=O)CC12CC3CC(CC(C3)C1)C2 | active: 1 µM | –
COc1ccc(OC)c(-c2nc3c(C#N)c[nH]n3c2NC2CCCCC2)c1 | inactive | –
NC(Cc1ccccc1)c1csc(NC(=O)Nc2ccccc2Oc2ccccc2)n1 (stereo not drawn) | inconclusive: 10 µM [inhibitor, partial curve, poor fit] | –
COc1cccc(C(=O)Nc2ccccc2NC(=O)c2cccc(OC)c2)c1 | inconclusive: 2.24 µM [inhibitor, partial curve, poor fit] | –

Compound | Potency | activity change, negative = inhibition
CCNC(=O)C1(C)CCCN(Cc2ccc(-c3ccccc3)o2)C1 (stereo not drawn) | inactive | –
O=c1c2ccccc2sn1-c1ccccc1F | active: 14.1 µM | –
Nn1c(Nc2ccccc2)nc2sc3c(c2c1=O)CCCC3 | inconclusive: 31.6 µM [inhibitor, single point] | –
Cc1cc(N2C(=O)C=CC2=O)c([N+](=O)[O-])cc1C | inconclusive: 28.2 µM [inhibitor, single point] | –
CCCc1nc2c3ccccc3ccn2c1Cc1cccc(Cl)c1 | inconclusive: 12.6 µM [inhibitor, single point] | –
CCOC(=O)c1ccc(NC(=S)NCCC2=CCCCC2)cc1 | inconclusive: 11.2 µM [inhibitor, partial curve, poor fit] | –
COCCN(CCOc1cc(C)cc(C)c1)Cc1ccc(Cl)cc1 | inconclusive: 3.98 µM [inhibitor, partial curve, poor fit] | –
Cc1ccccc1C(=O)N(Cc1ccc(N(C)C)cc1)Cc1ccco1 | inconclusive: 10 µM [inhibitor, partial curve, poor fit] | –
Cc1ccc(C(=O)COC(=O)CSc2cccc3cccnc23)c(C)c1 | inconclusive: 28.2 µM [inhibitor, single point] | –
Cc1ccc(NC(=O)CCCC2CCCCC2)c(O)c1 | inconclusive: 15.8 µM [inhibitor, single point] | –
CC(C)OCCCNc1ncnc2c1[nH]c1ccc(F)cc12 | inconclusive: 7.94 µM [inhibitor, partial curve, poor fit] | –
CN(C)c1ccc(CN(CC2CCCO2)C(=O)COc2ccccc2Cl)cc1 (stereo not drawn) | inconclusive: 10 µM [inhibitor, single point] | –
COc1ccc(N(CC(=O)NCc2ccc(F)cc2)S(=O)(=O)c2c(C)noc2C)cc1 | inconclusive: 28.2 µM [inhibitor, single point] | –
N#Cc1ccc(-c2cccs2)nc1SCc1c(F)cccc1Cl | inconclusive: 1.12 µM [inhibitor, full curve, poor fit] | –
COc1ccc(CNC(=O)CN2C(=O)NC(C)(c3ccc(Cl)cc3)C2=O)cc1 (stereo not drawn) | inconclusive: 31.6 µM [inhibitor, single point] | –
CN(C)S(=O)(=O)c1ccc(N2CCCC2)c(C(=O)NC2(C)CCS(=O)(=O)C2)c1 (stereo not drawn) | inactive | –
Cc1c(C(=O)N2CCN(c3ccccn3)CC2)oc2c(F)cccc12 | inactive | –
O=C(/C=C/c1ccccc1)N/C(=C/c1ccccc1)C(=O)N1CCCCC1 | inconclusive: 22.4 µM [inhibitor, single point] | –
COc1ccc(NC(=O)C(c2ccccc2)c2ccccc2)c(OC)c1 | inconclusive: 11.2 µM [inhibitor, single point] | –
O=C(c1cc2cc(F)ccc2[nH]1)N1CCC(Cc2ccccc2)CC1 | inconclusive: 25.1 µM [inhibitor, single point] | –
Fc1cccc(Cl)c1/C=C/c1cnc2ccccc2n1 | – | inconclusive: -44.7% [inhibitor]

Compound | Potency | activity change, negative = inhibition
O=C(C1=C(O)C(=O)N(Cc2ccco2)C1c1cccnc1)c1cc2ccccc2o1 (stereo not drawn) | inactive | –
N#CCCN(C(=O)COc1ccc(Br)cc1F)c1ccc(F)cc1 | inconclusive: 8.91 µM [inhibitor, partial curve, poor fit] | –
COc1ccccc1C(CNC(=O)c1cccc(S(=O)(=O)N2CCCc3ccccc32)c1)N(C)C (stereo not drawn) | inconclusive: 12.6 µM [inhibitor, single point] | –
C[C@@H]1CC=C[C@H]2[C@H]1C(=O)N(Cc1ccccc1)[C@H]2c1ccc2ccccc2c1 | inconclusive: 28.2 µM [inhibitor, single point] | –
CCN(CC)C1CCN(C(=O)c2cc(COc3ccc(-n4cncn4)cc3)on2)C1 (stereo not drawn) | inconclusive: 3.98 µM [inhibitor, partial curve, poor fit] | –
Cc1cc(C)c(C(=O)CC(=O)c2cccnc2)c(C)c1 | inconclusive: 11.2 µM [inhibitor, single point] | –
CC(=O)Nc1ccc(/C=N/OCC(=O)Nc2ccc(C)cc2)cc1 | inactive | –
Cc1nn(Cc2ccc(Cl)c(Cl)c2)c(C)c1NC(=O)c1cc(C2CC2)on1 | inconclusive: 11.2 µM [inhibitor, single point] | –
COc1ccc(Nc2c3c(nc4ccc(NC(=O)/C=C/c5cc(OC)c(OC)c(OC)c5)cc24)CCCC3)cc1OC | inconclusive: 28.2 µM [inhibitor, single point] | –
COc1ccc(-c2noc(CCC(=O)N(C)c3ccccc3C)n2)cc1 | inconclusive: 11.2 µM [inhibitor, partial curve, poor fit] | –
COCCCNS(=O)(=O)c1cc(-c2onc(C)c2C)ccc1OC | inactive | –
C/C(CC(=O)N1CCCC1)=N\NC(=O)c1cc2ccccc2cc1O | inconclusive: 17.8 µM [inhibitor, single point] | –
CCOC(=O)C1=C(CC)Nc2ccccc2N/C1=N\S(=O)(=O)c1ccccc1OC | inconclusive: 10 µM [inhibitor, partial curve] | –
CCC(C)(c1ccc(C(=O)OC)s1)c1ccc(C(=O)OC)s1 | inconclusive: 22.4 µM [inhibitor, single point] | –
Cn1c(=O)c2cc(NC(=O)CCc3ccccc3)ccc2n1Cc1cccc(C(F)(F)F)c1 | inconclusive: 10 µM [inhibitor, partial curve, poor fit] | –
CC(C)(C)c1ccc(S(=O)(=O)NCC(=O)N2CCN(Cc3ccccc3)CC2)cc1 | inconclusive: 28.2 µM [inhibitor, single point] | –
O=C(NC1CCCC1)c1ccc2c(c1)N(Cc1ccc(C(F)(F)F)cc1)C(=O)c1ccccc1S2 | inactive | –
CC1=C(C(=O)OC2CCCCC2)C(c2ccc(C)o2)C2=C(CC(C)(C)CC2=O)N1 (stereo not drawn) | inconclusive: 28.2 µM [inhibitor, single point] | –
O=C(Cc1ccc(S(=O)(=O)N2CCCCC2)s1)Nc1ccc(F)c(F)c1 | inconclusive: 14.1 µM [inhibitor, partial curve, poor fit] | –
S=C(NC1CC2CCC1C2)N1CCN(c2cccc(Cl)c2)CC1 (stereo not drawn) | inconclusive: 2.82 µM [inhibitor, full curve] | –
CCOC(=O)c1c(CN2CCNCC2)nc2ccc(Cl)cc2c1-c1ccccc1 | inconclusive: 7.08 µM [inhibitor, partial curve] | –
